Test results taken from PubChem BioAssay AID686979 (National Center for Advancing Translational Sciences (NCATS), 2013).
Out of some 420,000 compounds screened, about 50,000 (12%) were called active. The shares of active, inactive and inconclusive entries below differ from those in the screen. Calls come from the whole dose curve; as a rule, active = well fitted inhibition curve with a large enough effect; inconclusive = small, poorly fitted or top-dose-only effect; inactive = flat fitted curve, though single readings scatter. Potencies of inconclusive entries are left out as doubtful fits.

test: qHTS for Inhibitors of human tyrosyl-DNA phosphodiesterase 1 (TDP1): qHTS in cells in presence of CPT; conditions: chicken DT40 Tdp1-/-;hTDP1 cells + 20 nM CPT, ATP luminescence, 48 h; activity change, negative = growth inhibition: at 46.2 µM (top of the series); note: nearly all actives have a fitted effect of over 55% in size
Outline: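 Chicken DT40 Tdp1-/- cells complemented with human TDP1, 400 cells/well, exposed to compounds plus 20 nM camptothecin for at least 48 h at 37 C; viability read as ATP content by CellTiter-Glo luminescence.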
% is set by controls: 0 for no effect and ±100 for the full control effect; potency is the fitted concentration of half-maximal effect; tags give direction and shape of the fitted curve.

Row | SMILES | Potency | activity change, negative = growth inhibition
1 | CCOC(=O)c1c(C)[nH]c(C)c1S(=O)(=O)NCC1CCN(Cc2ccccc2OC)CC1 | inconclusive [inhibitor, single point] | 
2 | CN(C)c1cc[n+](CC(=O)Nc2ccc(OC(F)F)cc2)cc1 | active: 23.1 µM | 
3 | CCOc1cc(C2NC(=O)NC(c3ccccc3)=C2C(C)=O)ccc1OC(C)=O (stereo not given) |  | inactive: -3.84%
4 | O=[N+]([O-])c1cc(-c2n[nH]c(-c3ccccc3)n2)cc([N+](=O)[O-])c1 | inconclusive [inhibitor, single point] | 
5 | Cc1cccc(NC(=O)Nc2c(C)n(C)n(-c3ccccc3)c2=O)c1 | inconclusive [inhibitor, single point] | 
6 | CC1(C(=O)NS(=O)(=O)c2cccc(Cl)c2)CCN1C(=O)c1ccccc1CCc1ccccc1 (stereo not given) | inconclusive [inhibitor, single point] | 
7 | CCOc1ccc(C(=O)Nc2ccc3oc(-c4ccncc4)nc3c2)cc1 |  | inactive: -20.8%
8 | O=C(Nc1ccc2c(c1)OCO2)c1cc(-c2cccc(O)c2)on1 |  | inactive: 1.29%
9 | Cc1ccc(S(=O)(=O)Nc2cccc(C(=O)NCC(c3ccco3)N3CCCC3)c2)cc1F (stereo not given) | inconclusive [inhibitor, single point] | 
10 | Cc1ccc(Nc2nc(C)c(NC(=O)c3ccc(C)cc3)c(Nc3ccc(C)cc3)n2)cc1 | active: 6.51 µM | 
11 | COc1ccccc1CNC(=O)CSc1ccc(-c2ccncc2)nn1 | inconclusive [inhibitor, single point] | 
12 | COc1cc2c(cc1NC(=O)C(C)Sc1ccc(C)cc1)oc1ccccc12 (stereo not given) | inconclusive [inhibitor, single point] | 
13 | CCc1cccc(C)c1NC(=O)C(CC)Sc1nncn2c1cc1occc12 (stereo not given) | active: 20.6 µM | 
14 | Cc1cc(C)cc(NC(=O)c2cc(C)n(Cc3cccs3)c2C)c1 | active: 29.1 µM | 
15 | COc1ccc(/C=C\C(=O)Nc2ccccc2C(=O)O)cc1OC | active: 13.3 µM | 
16 | COc1ccc(CCC(=O)Nc2cccc(S(=O)(=O)N3CCCCCC3)c2)cc1 | inconclusive [inhibitor, partial curve] | 
17 | O=C(CSc1ccc(Cl)cc1)Nc1ccccc1N1CCN(C(=O)c2ccccc2)CC1 | active: 16.4 µM | 
18 | Cn1c(=O)n(C)c2cc(NS(=O)(=O)c3ccc(C(C)(C)C)cc3)c(NCc3ccccc3)cc21 | active: 20.6 µM | 
19 | C[C@H](NC(=O)c1[nH]cnc1C(=O)Nc1ccc(Cl)cc1)C(=O)OC(C)(C)C | inconclusive [inhibitor, single point] | 
20 | Cc1cccc(C(=O)Nc2nnc(S(=O)(=O)N3CCCc4ccccc43)s2)c1 | inconclusive [inhibitor, partial curve, poor fit] | 
